Whole data set: some 33,000 sequences, median “E-score (-0.5 to 0.5)” near -0.054, cut for the highest 2% near 0.39. The list shows a part of the results.
The sequences below were run against Ylr278c (UniProt Q05854) (assay: PBM E-score (8-mer binding enrichment) (E-score (-0.5 to 0.5)); higher = stronger / more preferred TF binding; most listed sequences are background and not binding sites). Conditions: protein concentration: 200 nM; construct: GST-DNA-binding domain.
Summary of the method: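 Each ungapped eight-base word and its reverse complement, pooled, received an E-score from the Universal PBM Analysis Suite. Underlying scans, normalised with masliner, recorded fluorescent anti-GST bound to GST-tagged yeast transcription factors. These were applied at about 100-200 nM to universal all-10-mer Agilent arrays double-stranded by primer extension.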
For CAGGCGTC, the “PBM E-score” value was -0.1. ACTGACAG was tested, and the “PBM E-score” value was -0.0502. In the case of AGGCTGAC, the “PBM E-score” value is reported as -0.265. With CCATAATC the “PBM E-score” value was -0.0771. In the case of ATGCCGTG, the “PBM E-score” value is reported as 0.0916. AAGCTAGC was tested, and the “PBM E-score” value was -0.221. In the case of CAGAGAAG, the “PBM E-score” value is reported as -0.15. GGAATAGA was tested, and the “PBM E-score” value was 0.265. For GAAGTTGA, the “PBM E-score” value was -0.0386. For AAGGGTAT, the “PBM E-score” value was -0.0768. In the case of CGACCGAA, the “PBM E-score” value is reported as 0.148. AGATCTAA was tested, and the “PBM E-score” value was -0.201. AGAGTGCG was tested, and the “PBM E-score” value was -0.0736. GCCCGTAA was tested, and the “PBM E-score” value was 0.0898. In the case of AATTCATG, the “PBM E-score” value is reported as 0.0206. In the case of CCACAAGG, the “PBM E-score” value is reported as -0.18. In the case of GCGGATCC, the “PBM E-score” value is reported as 0.271. With CCACTAGC the “PBM E-score” value was -0.289. For CACCGATC, the “PBM E-score” value was 0.165. In the case of CAATGCCC, the “PBM E-score” value is reported as 0.147. In the case of AGGTGAAA, the “PBM E-score” value is reported as -0.0732. ACTCACAA was tested, and the “PBM E-score” value was -0.163. GAACGCGC was tested, and the “PBM E-score” value was 0.171. With GCGACGAC the “PBM E-score” value was -0.126. With AGAGTGGA the “PBM E-score” value was -0.0459. For CCATAGAG, the “PBM E-score” value was -0.198. In the case of GCCGTTCA, the “PBM E-score” value is reported as 0.107. In the case of GAGACCTA, the “PBM E-score” value is reported as -0.113. In the case of ACCACAAT, the “PBM E-score” value is reported as 0.0158. In the case of GCCGCCGC, the “PBM E-score” value is reported as 0.24. For ATGCCGAC, the “PBM E-score” value was 0.318. With ATGGGGAC the “PBM E-score” value was 0.0826. With ACCTCTCA the “PBM E-score” value was 0.0413. In the case of CTACTAAC, the “PBM E-score” value is reported as -0.0137. In the case of AACGCCAC, the “PBM E-score” value is reported as -0.146. CATGATTA was tested, and the “PBM E-score” value was -0.0982. CAAAGACG was tested, and the “PBM E-score” value was -0.0301. For CTCATCGA, the “PBM E-score” value was -0.21. For AAAGCAGC, the “PBM E-score” value was -0.0496. In the case of ACTACCCG, the “PBM E-score” value is reported as 0.119. With AGACGGTG the “PBM E-score” value was -0.0786. CAGCAATG was tested, and the “PBM E-score” value was -0.367. In the case of CAAGACAG, the “PBM E-score” value is reported as -0.0725. ACGAGTTC was tested, and the “PBM E-score” value was -0.155. With CTACCTTC the “PBM E-score” value was -0.117. With ACACAGAT the “PBM E-score” value was -0.225. CCCAGCGA was tested, and the “PBM E-score” value was -0.25. In the case of GGCCAACA, the “PBM E-score” value is reported as 0.0994. For ATTCTCTG, the “PBM E-score” value was -0.176. In the case of GAGCTATA, the “PBM E-score” value is reported as -0.178. With AGTTATCA the “PBM E-score” value was -0.0406. In the case of CGCCTCCG, the “PBM E-score” value is reported as 0.398. With AGAACTAT the “PBM E-score” value was -0.0308. In the case of ACCCGAGC, the “PBM E-score” value is reported as 0.211. In the case of TGTATCAA, the “PBM E-score” value is reported as -0.0655. AGTGCTGG was tested, and the “PBM E-score” value was -0.185. With GCCAGACA the “PBM E-score” value was 0.018. With GGTGTCAC the “PBM E-score” value was 0.102. With CTACTGAC the “PBM E-score” value was -0.0949. For ATACCGGG, the “PBM E-score” value was 0.334. ACAAACTG was tested, and the “PBM E-score” value was -0.222. For AGGCGAGG, the “PBM E-score” value was -0.11. In the case of CGGGAAGA, the “PBM E-score” value is reported as 0.305. With ATGTTATC the “PBM E-score” value was 0.0853. AGGCAAAT was tested, and the “PBM E-score” value was -0.00215. AAAAACAG was tested, and the “PBM E-score” value was -0.137. For TCGACCCA, the “PBM E-score” value was -0.167. For ATGCATGC, the “PBM E-score” value was -0.244. AACGGAAC was tested, and the “PBM E-score” value was 0.322. With AGCAATAA the “PBM E-score” value was -0.206. For GACTTGCA, the “PBM E-score” value was 0.0343. AGATCGCT was tested, and the “PBM E-score” value was 0.0168. ATTCAAAT was tested, and the “PBM E-score” value was -0.132. CTCGCTAA was tested, and the “PBM E-score” value was 0.0133. For AGTTGTAT, the “PBM E-score” value was -0.0235. In the case of ATTACGGG, the “PBM E-score” value is reported as 0.0389. For GAGCGTTA, the “PBM E-score” value was -0.0526. With ATTGGCAC the “PBM E-score” value was -0.247. GATACGGA was tested, and the “PBM E-score” value was 0.348. For CTACGGAC, the “PBM E-score” value was 0.261. For TAAGATCA, the “PBM E-score” value was -0.324. With GCAAGCCA the “PBM E-score” value was -0.216. With GAATATGC the “PBM E-score” value was 0.0861. With AGACACCA the “PBM E-score” value was -0.0872. ACCCCGCA was tested, and the “PBM E-score” value was 0.285. With CCTGTTGA the “PBM E-score” value was -0.121. AGAGTACA was tested, and the “PBM E-score” value was -0.116. For CGAACTGA, the “PBM E-score” value was -0.0154. With CGCCACTA the “PBM E-score” value was -0.093. For CGGAGACG, the “PBM E-score” value was 0.415. With TCCACAGA the “PBM E-score” value was -0.111. With GAACTCCA the “PBM E-score” value was 0.0324. In the case of CGCCTAAG, the “PBM E-score” value is reported as -0.0793. In the case of ATCGTGCG, the “PBM E-score” value is reported as 0.0767. CCAAGTCG was tested, and the “PBM E-score” value was -0.0159. With GCAGATAA the “PBM E-score” value was -0.0595. AATTATGA was tested, and the “PBM E-score” value was 0.0982. For AGCTTACG, the “PBM E-score” value was -0.143. With CCCACCTC the “PBM E-score” value was -0.103. In the case of GAGACAGC, the “PBM E-score” value is reported as 0.00346. AATGCTGA was tested, and the “PBM E-score” value was -0.157. For GCCGCTGA, the “PBM E-score” value was 0.147. For GACCCTCA, the “PBM E-score” value was -0.137. In the case of GTATAAGA, the “PBM E-score” value is reported as -0.148. CGAAGTCC was tested, and the “PBM E-score” value was 0.38. For ATATACGC, the “PBM E-score” value was -0.0877. In the case of TGCCCGCA, the “PBM E-score” value is reported as 0.265. With TACTGCTA the “PBM E-score” value was -0.151. ATCTGCTC was tested, and the “PBM E-score” value was -0.0964. For AAACACAT, the “PBM E-score” value was -0.194. For AGGGCCCT, the “PBM E-score” value was -0.213. With AAATGACT the “PBM E-score” value was -0.219. With GCAGGTTA the “PBM E-score” value was -0.0146. For ATCAGACG, the “PBM E-score” value was -0.167. With ACTGCGGG the “PBM E-score” value was 0.14. With TGGAGCAA the “PBM E-score” value was -0.111. With AGAATAGC the “PBM E-score” value was -0.129. With ATCCTCGG the “PBM E-score” value was 0.255. In the case of AGTCGTAC, the “PBM E-score” value is reported as -0.187. In the case of CCCAATAA, the “PBM E-score” value is reported as -0.0977. ACGAGGGG was tested, and the “PBM E-score” value was -0.141. For GCGTTGAC, the “PBM E-score” value was -0.225. AAAGTCAT was tested, and the “PBM E-score” value was -0.211. In the case of AGCCATTG, the “PBM E-score” value is reported as -0.275. For AGATCCAC, the “PBM E-score” value was -0.0299. With AATGTGAC the “PBM E-score” value was -0.2. For GAGCGGAA, the “PBM E-score” value was 0.336. With CACGAGGG the “PBM E-score” value was 0.0432. In the case of AGGACTAA, the “PBM E-score” value is reported as -0.0624. In the case of ACAGGTAG, the “PBM E-score” value is reported as -0.278. With AGCAAGGA the “PBM E-score” value was -0.227. AAACGCGC was tested, and the “PBM E-score” value was -0.00658. With CGTGTGCA the “PBM E-score” value was -0.0995. With CACCCGTC the “PBM E-score” value was 0.0425. CAAGTGGG was tested, and the “PBM E-score” value was -0.0657. CAACGGCC was tested, and the “PBM E-score” value was 0.102. AAGTGTAA was tested, and the “PBM E-score” value was -0.163. ACTCACTG was tested, and the “PBM E-score” value was -0.148. For AACAACAA, the “PBM E-score” value was -0.202. GATCTCAC was tested, and the “PBM E-score” value was 0.0769. In the case of TCTCGTCA, the “PBM E-score” value is reported as -0.168. ATCTATGC was tested, and the “PBM E-score” value was -0.149. In the case of CCGACTAA, the “PBM E-score” value is reported as 0.271. For AAGATCAA, the “PBM E-score” value was -0.107. In the case of GACACTAA, the “PBM E-score” value is reported as 0.0137. In the case of AATAGCCA, the “PBM E-score” value is reported as -0.256. In the case of GTTGCAAA, the “PBM E-score” value is reported as 0.0792. For AATTAATC, the “PBM E-score” value was -0.0237. In the case of AGGGTCTC, the “PBM E-score” value is reported as -0.204. For CTGCATGC, the “PBM E-score” value was -0.101. In the case of CTCCGCGC, the “PBM E-score” value is reported as 0.429. In the case of AGTGCCTC, the “PBM E-score” value is reported as -0.24. In the case of CGCGATAG, the “PBM E-score” value is reported as 0.0638. In the case of AAACGCAC, the “PBM E-score” value is reported as -0.0305. For GAGAACTC, the “PBM E-score” value was -0.0192. For AACAGCCC, the “PBM E-score” value was -0.0466. With ATCGTACG the “PBM E-score” value was -0.0639. For CCCAGGTA, the “PBM E-score” value was -0.243. CCCCTCGA was tested, and the “PBM E-score” value was 0.0206. In the case of CAATGGGC, the “PBM E-score” value is reported as -0.106. GCTTATAC was tested, and the “PBM E-score” value was -0.0532. In the case of AGAGAGTA, the “PBM E-score” value is reported as -0.0223. TCTGGAAA was tested, and the “PBM E-score” value was -0.215. In the case of GAGGCAAC, the “PBM E-score” value is reported as -0.024. With AAGGGATG the “PBM E-score” value was -0.173. For TCCACCGA, the “PBM E-score” value was 0.0899. In the case of CGCTGCTA, the “PBM E-score” value is reported as -0.0685. For GTTGGTAA, the “PBM E-score” value was -0.224. ACGTCCAA was tested, and the “PBM E-score” value was 0.0759. CGTGGAGA was tested, and the “PBM E-score” value was -0.0657. For ACGATTCG, the “PBM E-score” value was 0.114. For GGCTTAAC, the “PBM E-score” value was -0.073.
